Results are given in words; binding and its absence hold for the method and conditions named. For part of these data: In cells and extracts the contact can be indirect. Some binding calls cover weakened binding; strength is not graded here. For part of these data: Where a sequence is shown, tags or fusion partners need not be part of it.
T1: JAZ11 (Arabidopsis thaliana) (UniProt Q9M246)
T1 sequence: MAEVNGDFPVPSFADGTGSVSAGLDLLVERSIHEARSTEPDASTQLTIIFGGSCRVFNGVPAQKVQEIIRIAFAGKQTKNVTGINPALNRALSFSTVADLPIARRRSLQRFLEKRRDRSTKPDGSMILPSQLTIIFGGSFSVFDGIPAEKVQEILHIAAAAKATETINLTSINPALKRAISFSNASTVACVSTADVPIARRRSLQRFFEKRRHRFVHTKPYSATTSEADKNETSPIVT

Amino acid sequences for entries named in this document (tags omitted).
UniProt Q8LBM2: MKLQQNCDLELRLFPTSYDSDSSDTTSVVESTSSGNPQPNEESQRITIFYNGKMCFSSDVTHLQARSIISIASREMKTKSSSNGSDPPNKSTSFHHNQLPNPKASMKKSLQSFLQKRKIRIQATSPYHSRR
UniProt Q93ZM9: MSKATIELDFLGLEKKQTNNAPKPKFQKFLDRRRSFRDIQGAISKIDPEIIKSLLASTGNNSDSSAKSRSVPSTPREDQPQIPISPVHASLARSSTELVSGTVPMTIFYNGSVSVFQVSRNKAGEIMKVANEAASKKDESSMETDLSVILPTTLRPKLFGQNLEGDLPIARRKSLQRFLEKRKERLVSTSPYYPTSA
UniProt Q39204: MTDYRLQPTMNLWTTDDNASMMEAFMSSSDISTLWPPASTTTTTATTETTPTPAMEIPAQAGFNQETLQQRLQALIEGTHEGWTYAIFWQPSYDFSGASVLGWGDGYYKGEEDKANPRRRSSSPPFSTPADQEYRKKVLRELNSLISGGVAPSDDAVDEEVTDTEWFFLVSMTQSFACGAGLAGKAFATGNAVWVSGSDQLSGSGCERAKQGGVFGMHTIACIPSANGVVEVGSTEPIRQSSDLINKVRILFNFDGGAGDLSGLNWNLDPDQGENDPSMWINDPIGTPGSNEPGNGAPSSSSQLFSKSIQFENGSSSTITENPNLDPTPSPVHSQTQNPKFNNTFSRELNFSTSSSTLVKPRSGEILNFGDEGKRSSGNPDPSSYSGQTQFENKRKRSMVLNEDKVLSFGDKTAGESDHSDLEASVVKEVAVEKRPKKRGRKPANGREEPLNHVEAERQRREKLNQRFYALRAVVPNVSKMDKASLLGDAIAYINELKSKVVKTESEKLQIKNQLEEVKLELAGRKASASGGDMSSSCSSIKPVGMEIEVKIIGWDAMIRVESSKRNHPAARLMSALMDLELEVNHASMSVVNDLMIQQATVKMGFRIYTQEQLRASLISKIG
UniProt Q9FIP9: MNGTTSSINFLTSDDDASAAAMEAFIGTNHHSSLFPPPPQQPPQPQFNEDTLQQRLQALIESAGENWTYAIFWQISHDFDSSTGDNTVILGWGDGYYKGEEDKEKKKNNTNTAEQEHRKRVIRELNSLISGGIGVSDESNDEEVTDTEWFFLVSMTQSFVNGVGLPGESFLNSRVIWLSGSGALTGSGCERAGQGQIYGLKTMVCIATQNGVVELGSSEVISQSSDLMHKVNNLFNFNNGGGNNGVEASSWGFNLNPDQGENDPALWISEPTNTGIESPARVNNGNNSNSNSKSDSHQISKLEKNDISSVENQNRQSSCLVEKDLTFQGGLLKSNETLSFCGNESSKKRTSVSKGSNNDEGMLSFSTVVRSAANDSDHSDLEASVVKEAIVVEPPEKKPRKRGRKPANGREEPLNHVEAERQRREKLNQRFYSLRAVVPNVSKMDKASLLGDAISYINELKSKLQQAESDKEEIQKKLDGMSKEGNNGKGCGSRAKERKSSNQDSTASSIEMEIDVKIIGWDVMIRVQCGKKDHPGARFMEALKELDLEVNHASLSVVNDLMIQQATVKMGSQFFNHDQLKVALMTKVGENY
UniProt O49687: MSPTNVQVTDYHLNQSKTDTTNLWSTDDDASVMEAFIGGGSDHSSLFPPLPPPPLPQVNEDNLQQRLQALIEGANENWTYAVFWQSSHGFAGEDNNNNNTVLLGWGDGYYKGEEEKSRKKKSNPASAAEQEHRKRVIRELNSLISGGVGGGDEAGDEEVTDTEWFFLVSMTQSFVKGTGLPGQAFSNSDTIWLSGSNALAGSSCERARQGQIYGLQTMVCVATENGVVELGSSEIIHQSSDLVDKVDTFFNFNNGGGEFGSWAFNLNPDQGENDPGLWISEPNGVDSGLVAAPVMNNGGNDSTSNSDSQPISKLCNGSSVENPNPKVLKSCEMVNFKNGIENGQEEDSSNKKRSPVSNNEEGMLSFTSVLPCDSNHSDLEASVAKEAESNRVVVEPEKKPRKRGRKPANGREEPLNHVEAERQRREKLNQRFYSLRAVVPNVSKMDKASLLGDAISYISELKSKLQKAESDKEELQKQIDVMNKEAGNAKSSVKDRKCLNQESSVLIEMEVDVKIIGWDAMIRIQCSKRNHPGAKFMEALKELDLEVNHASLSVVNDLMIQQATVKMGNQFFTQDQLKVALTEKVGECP

T2: EGL3 (BiFC fusion) (Arabidopsis thaliana) (UniProt Q9CAD0)
T2 sequence: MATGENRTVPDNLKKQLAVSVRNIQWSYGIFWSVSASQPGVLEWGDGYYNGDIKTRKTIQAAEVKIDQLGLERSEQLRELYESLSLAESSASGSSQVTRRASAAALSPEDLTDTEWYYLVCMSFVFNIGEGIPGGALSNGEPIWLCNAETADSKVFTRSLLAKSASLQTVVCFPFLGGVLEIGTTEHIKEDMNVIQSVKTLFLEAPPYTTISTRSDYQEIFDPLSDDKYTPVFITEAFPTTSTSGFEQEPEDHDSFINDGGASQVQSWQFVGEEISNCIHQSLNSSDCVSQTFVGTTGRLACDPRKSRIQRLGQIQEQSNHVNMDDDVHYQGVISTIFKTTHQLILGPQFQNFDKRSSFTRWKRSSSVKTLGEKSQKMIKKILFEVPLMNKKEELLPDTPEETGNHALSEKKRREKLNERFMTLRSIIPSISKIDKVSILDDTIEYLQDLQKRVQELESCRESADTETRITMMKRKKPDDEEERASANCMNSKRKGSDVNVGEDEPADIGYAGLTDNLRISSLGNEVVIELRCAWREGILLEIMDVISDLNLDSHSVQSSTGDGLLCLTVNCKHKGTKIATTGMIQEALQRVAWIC

T3: GL1 (BiFC fusion) (Arabidopsis thaliana) (UniProt P27900)
T3 sequence: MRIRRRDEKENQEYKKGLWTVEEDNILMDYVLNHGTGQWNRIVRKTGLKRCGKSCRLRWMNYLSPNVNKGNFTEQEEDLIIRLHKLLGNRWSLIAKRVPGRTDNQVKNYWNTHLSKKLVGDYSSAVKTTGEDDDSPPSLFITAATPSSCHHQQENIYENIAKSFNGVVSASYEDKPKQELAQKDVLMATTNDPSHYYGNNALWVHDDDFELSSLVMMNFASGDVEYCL

T4: GL3 (BiFC fusion) (Arabidopsis thaliana) (UniProt Q9FN69)
T4 sequence: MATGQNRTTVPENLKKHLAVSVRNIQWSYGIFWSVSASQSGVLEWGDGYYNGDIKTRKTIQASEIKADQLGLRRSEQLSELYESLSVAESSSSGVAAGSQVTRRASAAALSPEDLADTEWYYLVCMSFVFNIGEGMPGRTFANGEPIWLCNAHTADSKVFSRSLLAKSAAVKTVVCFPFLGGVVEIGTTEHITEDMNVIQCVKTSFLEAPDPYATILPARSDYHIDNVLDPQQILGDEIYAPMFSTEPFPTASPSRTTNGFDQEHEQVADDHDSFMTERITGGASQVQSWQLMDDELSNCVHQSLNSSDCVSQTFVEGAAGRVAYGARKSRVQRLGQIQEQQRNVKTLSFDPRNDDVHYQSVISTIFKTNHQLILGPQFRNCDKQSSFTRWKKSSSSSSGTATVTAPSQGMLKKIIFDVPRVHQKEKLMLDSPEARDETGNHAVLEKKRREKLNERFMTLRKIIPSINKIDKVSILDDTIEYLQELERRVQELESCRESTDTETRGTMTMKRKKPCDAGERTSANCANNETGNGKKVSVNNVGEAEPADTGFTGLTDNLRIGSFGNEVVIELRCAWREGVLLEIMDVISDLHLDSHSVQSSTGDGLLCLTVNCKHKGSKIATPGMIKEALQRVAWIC

T5: JAZ1-nYFP (Arabidopsis thaliana) (UniProt Q9LMA8)
T5 sequence: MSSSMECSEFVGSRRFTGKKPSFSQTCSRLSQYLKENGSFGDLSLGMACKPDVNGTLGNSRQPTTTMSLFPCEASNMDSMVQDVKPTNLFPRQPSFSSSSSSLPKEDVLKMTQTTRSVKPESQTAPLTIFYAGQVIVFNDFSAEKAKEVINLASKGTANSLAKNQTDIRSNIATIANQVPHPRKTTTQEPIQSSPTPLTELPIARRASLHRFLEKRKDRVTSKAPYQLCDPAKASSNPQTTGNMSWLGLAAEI

T6: MYB75 (BiFC fusion) (Arabidopsis thaliana) (UniProt Q9FE25)
T6 sequence: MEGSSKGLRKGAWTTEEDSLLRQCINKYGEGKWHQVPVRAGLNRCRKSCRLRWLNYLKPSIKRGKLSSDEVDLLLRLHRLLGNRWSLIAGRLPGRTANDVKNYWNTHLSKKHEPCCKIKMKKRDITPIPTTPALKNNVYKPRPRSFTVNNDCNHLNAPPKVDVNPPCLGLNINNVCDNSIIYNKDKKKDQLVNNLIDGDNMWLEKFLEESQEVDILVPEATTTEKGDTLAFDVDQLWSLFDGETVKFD

T7: TT8 (BiFC fusion) (Arabidopsis thaliana) (UniProt Q9FT81)
T7 sequence: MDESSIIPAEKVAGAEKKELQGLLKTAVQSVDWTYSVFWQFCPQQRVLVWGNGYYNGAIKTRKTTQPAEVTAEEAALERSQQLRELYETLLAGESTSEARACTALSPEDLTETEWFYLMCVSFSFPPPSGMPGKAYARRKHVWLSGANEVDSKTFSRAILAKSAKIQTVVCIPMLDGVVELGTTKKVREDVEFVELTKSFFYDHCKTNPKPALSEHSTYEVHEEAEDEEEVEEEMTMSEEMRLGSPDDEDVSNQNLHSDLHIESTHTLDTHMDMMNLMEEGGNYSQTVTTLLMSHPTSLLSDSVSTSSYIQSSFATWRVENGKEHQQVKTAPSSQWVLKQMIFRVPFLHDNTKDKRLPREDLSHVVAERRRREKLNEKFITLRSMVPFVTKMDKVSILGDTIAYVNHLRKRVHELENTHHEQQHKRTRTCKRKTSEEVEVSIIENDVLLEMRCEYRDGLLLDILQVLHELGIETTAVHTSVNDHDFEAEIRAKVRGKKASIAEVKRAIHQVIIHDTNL

B1: bHLH14 (protein, UniProt O23090 1-423)
chain: MYNLTFSPSLSSSLLSFTQQTPAAIVSSSPPDLVLQQKLRFVVETSPDRWAYVIFWQKMFDDQSDRSYLVWVDGHFCGNKNNNSQENYTTNSIECELMMDGGDDLELFYAASFYGEDRSPRKEVSDESLVWLTGPDELRFSNYERAKEAGFHGVHTLVSIPINNGIIELGSSESIIQNRNFINRVKSIFGSGKTTKHTNQTGSYPKPAVSDHSKSGNQQFGSERKRRRKLETTRVAAATKEKHHPAVLSHVEAEKQRREKLNHRFYALRAIVPKVSRMDKASLLSDAVSYIESLKSKIDDLETEIKKMKMTETDKLDNSSSNTSPSSVEYQVNQKPSKSNRGSDLEVQVKIVGEEAIIRVQTENVNHPTSALMSALMEMDCRVQHANASRLSQVMVQDVVVLVPEGLRSEDRLRTTLVRTLSL
B2: cYFP-bHLH14 (protein, UniProt O23090 1-423)
chain: B1 chain

Tests used:
[1] = target: T1, JAZ11 (Arabidopsis thaliana); assay: two-hybrid; LexA BD fusions (pLexA) and B42 AD fusions (pB42AD) in yeast EGY48; blue colour on 2% Gal/1% raffinose/SD/-Ura/-His/-Trp/-Leu/X-β-Gal medium; images after 3 days at 30°C
[2] = target: JAZ8 (Arabidopsis thaliana) (UniProt Q8LBM2); assay: as above
[3] = target: T2, EGL3 (BiFC fusion) (Arabidopsis thaliana); assay: split reporter; BiFC: nYFP and cYFP fusions coexpressed in N. benthamiana leaves by Agrobacterium infiltration; YFP fluorescence 50 h after infiltration, plants at 24°C
[4] = target: T3, GL1 (BiFC fusion) (Arabidopsis thaliana); assay: as above
[5] = target: T4, GL3 (BiFC fusion) (Arabidopsis thaliana); assay: as above
[6] = target: T5, JAZ1-nYFP (Arabidopsis thaliana); assay: as above
[7] = target: JAZ10 (fused with nYFP) (Arabidopsis thaliana) (UniProt Q93ZM9); assay: as above
[8] = target: T6, MYB75 (BiFC fusion) (Arabidopsis thaliana); assay: as above
[9] = target: MYC2 (BiFC fusion) (Arabidopsis thaliana) (UniProt Q39204); assay: as above
[10] = target: MYC3 (BiFC fusion) (Arabidopsis thaliana) (UniProt Q9FIP9); assay: as above
[11] = target: MYC4 (BiFC fusion) (Arabidopsis thaliana) (UniProt O49687); assay: as above
[12] = target: T7, TT8 (BiFC fusion) (Arabidopsis thaliana); assay: as above

Binder | binding [1] | binding [2] | binding [3] | binding [4] | binding [5] | binding [6] | binding [7] | binding [8] | binding [9] | binding [10] | binding [11] | binding [12]
B1 | binds | binds | – | – | – | – | – | – | – | – | – | –
B2 | – | – | no binding | no binding | no binding | binds | binds | no binding | no binding | no binding | no binding | no binding
